# Results taken from the supplement of paper PMC8728848.
# The other results are listed elsewhere or left out.
# B1: GSL-I (Griffonia simplicifolia) (protein)
# chain: FNLPNFWSDVKDNIIFQGDANTTAGTLQLCKTNQYGNPLQYRAGRALYSDPVQLWDNKTGSVASFYTEFTFFLKITGDGPADGLAFFLAPPDSDVKDAGAYLGLFNKSTATQPSKNQVVAVEFDTWKNTDFPEPSYRHIGINVNSIVSVATKRWEDSDIFSGKIATARISYDGSAKILTVVLSYPDGADYILSHSVDLSKNLPNPIRVGISASTGANQFLTVYVLSWRFSSALQSTSVNAAMGPEIIRTVV
# Assays:
# Experiment in all cases: glycan array binding signal (z-score within array); higher = stronger binding
# Details in all cases: glycan notation: IUPAC condensed, linker removed
# [1] = target: Fuc(a1-2)Gal
# Method in brief: (§1)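 Negative Z-scores can be read as non-binding. The Z-score is calculated within each array and then averaged across arrays of one protein sequence at different concentrations or buffers and across linkers. Arrays, 3228 in all, were curated from the Consortium for Functional Glycomics database and kept only where the protein sequence was available.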
# [2] = target: Fuc(a1-2)Gal(b1-3)GalNAc
# Method in brief: as §1
# [3] = target: Fuc(a1-2)Gal(b1-3)GalNAc(a1-3)[Fuc(a1-2)]Gal(b1-4)Glc
# Method in brief: as §1
# [4] = target: Fuc(a1-2)Gal(b1-3)GalNAc(a1-3)[Fuc(a1-2)]Gal(b1-4)GlcNAc
# Method in brief: as §1
# [5] = target: Fuc(a1-2)Gal(b1-3)GalNAc(b1-3)Gal
# Method in brief: as §1
# [6] = target: Fuc(a1-2)Gal(b1-3)GalNAc(b1-3)Gal(a1-4)Gal(b1-4)Glc
# Method in brief: as §1
# [7] = target: Fuc(a1-2)Gal(b1-3)GalNAc(b1-4)[Neu5Ac(a2-3)]Gal(b1-4)Glc
# Method in brief: as §1
# [8] = target: Fuc(a1-2)Gal(b1-3)GlcNAc
# Method in brief: as §1
# [9] = target: Fuc(a1-2)Gal(b1-3)GlcNAc(b1-2)Man(a1-3)[Fuc(a1-2)Gal(b1-3)GlcNAc(b1-2)Man(a1-6)]Man(b1-4)GlcNAc(b1-4)GlcNAc
# Method in brief: as §1
# [10] = target: Fuc(a1-2)Gal(b1-3)GlcNAc(b1-2)Man(a1-3)[Fuc(a1-2)Gal(b1-3)GlcNAc(b1-2)Man(a1-6)]Man(b1-4)GlcNAc(b1-4)[Fuc(a1-6)]GlcNAc
# Method in brief: as §1
# [11] = target: Fuc(a1-2)Gal(b1-3)GlcNAc(b1-3)Gal(b1-4)Glc
# Method in brief: as §1
# [12] = target: Fuc(a1-2)Gal(b1-3)GlcNAc(b1-3)GalNAc
# Method in brief: as §1
# [13] = target: Fuc(a1-2)Gal(b1-3)GlcNAc(b1-3)[Fuc(a1-2)Gal(b1-3)GlcNAc(b1-6)]GalNAc
# Method in brief: as §1
# [14] = target: Fuc(a1-2)Gal(b1-3)GlcNAc(b1-3)[Gal(b1-4)GlcNAc(b1-6)]Gal(b1-4)Glc
# Method in brief: as §1
# [15] = target: Fuc(a1-2)Gal(b1-3)GlcNAc(b1-3)[Neu5Ac(a2-6)Gal(b1-4)GlcNAc(b1-6)]Gal(b1-4)Glc
# Method in brief: as §1
# [16] = target: Fuc(a1-2)Gal(b1-3)GlcNAc6S
# Method in brief: as §1
# [17] = target: Fuc(a1-2)Gal(b1-3)[Fuc(a1-4)]GlcNAc
# Method in brief: as §1
# [18] = target: Fuc(a1-2)Gal(b1-3)[Fuc(a1-4)]GlcNAc(b1-2)Man(a1-3)[Fuc(a1-2)Gal(b1-3)[Fuc(a1-4)]GlcNAc(b1-2)Man(a1-3)]Man(b1-4)GlcNAc(b1-4)GlcNAc
# Method in brief: as §1
# [19] = target: Fuc(a1-2)Gal(b1-3)[Fuc(a1-4)]GlcNAc(b1-2)Man(a1-3)[Fuc(a1-2)Gal(b1-3)[Fuc(a1-4)]GlcNAc(b1-2)Man(a1-6)]Man(b1-4)GlcNAc(b1-4)[Fuc(a1-6)]GlcNAc(b1-4)[Fuc(a1-6)]GlcNAc
# Method in brief: as §1
# [20] = target: Fuc(a1-2)Gal(b1-3)[Fuc(a1-4)]GlcNAc(b1-3)[Fuc(a1-3)[Gal(b1-4)]GlcNAc(b1-6)]Gal(b1-4)Glc
# Method in brief: as §1
# [21] = target: Fuc(a1-2)Gal(b1-3)[Fuc(a1-4)]GlcNAc(b1-3)[Gal(b1-4)GlcNAc(b1-6)]Gal(b1-4)Glc
# Method in brief: as §1
# [22] = target: Fuc(a1-2)Gal(b1-4)Fuc(a1-3)]GlcNAc(b1-2)Man(a1-3)[Fuc(a1-2)Gal(b1-4)[Fuc(a1-3)]GlcNAc(b1-2)Man(a1-6)]Man(b1-4)GlcNAc(b1-4)GlcNAc
# Method in brief: as §1
# [23] = target: Fuc(a1-2)Gal(b1-4)Glc
# Method in brief: as §1
# [24] = target: Fuc(a1-2)Gal(b1-4)Glc6S
# Method in brief: as §1
# [25] = target: Fuc(a1-2)Gal(b1-4)GlcNAc
# Method in brief: as §1
# [26] = target: Fuc(a1-2)Gal(b1-4)GlcNAc(b1-2)Man
# Method in brief: as §1
# [27] = target: Fuc(a1-2)Gal(b1-4)GlcNAc(b1-2)Man(a1-3)[Fuc(a1-2)Gal(b1-4)GlcNAc(b1-2)Man(a1-6)]Man(b1-4)GlcNAc(b1-4)GlcNAc
# Method in brief: as §1
# [28] = target: Fuc(a1-2)Gal(b1-4)GlcNAc(b1-2)Man(a1-3)[Fuc(a1-2)Gal(b1-4)GlcNAc(b1-2)Man(a1-6)]Man(b1-4)GlcNAc(b1-4)[Fuc(a1-6)]GlcNAc
# Method in brief: as §1
# [29] = target: Fuc(a1-2)Gal(b1-4)GlcNAc(b1-2)[Fuc(a1-2)Gal(b1-4)GlcNAc(b1-4)]Man(a1-3)[Fuc(a1-2)Gal(b1-4)GlcNAc(b1-2)Man(a1-6)]Man(b1-4)GlcNAc(b1-4)GlcNAc
# Method in brief: as §1
# [30] = target: Fuc(a1-2)Gal(b1-4)GlcNAc(b1-3)Gal(b1-4)GlcNAc
# Method in brief: as §1
binder,measurement,setting,value
B1,glycan array binding signal (z-score),[1],-0.177
same,glycan array binding signal (z-score),[2],-0.168
same,glycan array binding signal (z-score),[3],-0.16
same,glycan array binding signal (z-score),[4],-0.242
same,glycan array binding signal (z-score),[5],-0.073
same,glycan array binding signal (z-score),[6],-0.244
same,glycan array binding signal (z-score),[7],-0.173
same,glycan array binding signal (z-score),[8],-0.237
same,glycan array binding signal (z-score),[9],0.281
same,glycan array binding signal (z-score),[10],-0.103
same,glycan array binding signal (z-score),[11],-0.052
same,glycan array binding signal (z-score),[12],-0.157
same,glycan array binding signal (z-score),[13],-0.061
same,glycan array binding signal (z-score),[14],-0.207
same,glycan array binding signal (z-score),[15],-0.246
same,glycan array binding signal (z-score),[16],-0.187
same,glycan array binding signal (z-score),[17],0.027
same,glycan array binding signal (z-score),[18],0.059
same,glycan array binding signal (z-score),[19],0.059
same,glycan array binding signal (z-score),[20],0.085
same,glycan array binding signal (z-score),[21],-0.08
same,glycan array binding signal (z-score),[22],0.367
same,glycan array binding signal (z-score),[23],-0.208
same,glycan array binding signal (z-score),[24],-0.02
same,glycan array binding signal (z-score),[25],-0.213
same,glycan array binding signal (z-score),[26],-0.266
same,glycan array binding signal (z-score),[27],0.12
same,glycan array binding signal (z-score),[28],-0.072
same,glycan array binding signal (z-score),[29],-0.104
same,glycan array binding signal (z-score),[30],-0.241
